# Laboratory results reported in paper PMC12820563.
# The list shows a part of the results. The list includes weakly bound sequences.
# Biological target: T1, MBP-FoxP3dN (UniProt Q99JB6)
# T1 sequence: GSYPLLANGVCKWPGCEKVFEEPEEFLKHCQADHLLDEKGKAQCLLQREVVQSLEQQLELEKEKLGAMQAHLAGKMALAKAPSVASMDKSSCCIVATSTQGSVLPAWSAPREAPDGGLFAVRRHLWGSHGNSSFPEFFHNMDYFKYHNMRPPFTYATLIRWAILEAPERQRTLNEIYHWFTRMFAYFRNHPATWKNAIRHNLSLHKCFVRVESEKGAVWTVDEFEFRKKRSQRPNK
# Assay: PD-seq (MBP pull-down with sequencing)
# Details: 20 mM Tris-HCl pH 7.5, 100 mM NaCl, 1.5 mM MgCl2, 0.4 uM protein, 0.1 uM dsDNA library, 30 min, room temperature, amylose pull-down; high values mean tight binding; double strand, one strand shown
row,Sequence,binding signal (RPM ratio (pull-down/input))
1,GATGATTGTTCTCCCAGCTGATGAATTCGTTAGATCGAGTAAACAAATTTTCCTAATCTTTCTGTTCAAGCGCCATCTAC,0.321
2,GATGATTGTTCTCCCAGCTGATGAATTCTCGTTCTCGAGTAAACAAATTTTCCTAATCTTTCTGTTCAAGCGCCATCTAC,0.443
3,GATGATTGTTCTCCCAGCTGATGAATTCTCCTACTCGAGTAAACAAATTTTCCTAATCTTTCTGTTCAAGCGCCATCTAC,0.224
4,GATGATTGTTCTCCCAGCTGATGAATTGGCGAGATCGAGTAAACAAATTTTCCTAATCTTTCTGTTCAAGCGCCATCTAC,0.32
5,GATGATTGTTCTCCCAGCTGATGAATTCGTCCCGTCGAGTAAACAAATTTTCCTAATCTTTCTGTTCAAGCGCCATCTAC,0.54
6,GATGATTGTTCTCCCAGCTGATGAATTTCGCTCTTCGAGTAAACAAATTTTCCTAATCTTTCTGTTCAAGCGCCATCTAC,0.502
7,GATGATTGTTCTCCCAGCTGATGAATTAGCGTCTTCGAGTAAACAAATTTTCCTAATCTTTCTGTTCAAGCGCCATCTAC,1.21
8,GATGATTGTTCTCCCAGCTGATGAATTTGTCCAATCGAGTAAACAAATTTTCCTAATCTTTCTGTTCAAGCGCCATCTAC,0.789
9,GATGATTGTTCTCCCAGCTGATGAATTACCCTCGTCGAGTAAACAAATTTTCCTAATCTTTCTGTTCAAGCGCCATCTAC,0.332
10,GATGATTGTTCTCCCAGCTGATGAATTCTCGTCATCGAGTAAACAAATTTTCCTAATCTTTCTGTTCAAGCGCCATCTAC,0.415
11,GATGATTGTTCTCCCAGCTGATGAATTGCAACAATCGAGTAAACAAATTTTCCTAATCTTTCTGTTCAAGCGCCATCTAC,7.74
12,GATGATTGTTCTCCCAGCTGATGAATTCAGGTTATCGAGTAAACAAATTTTCCTAATCTTTCTGTTCAAGCGCCATCTAC,0.656
13,GATGATTGTTCTCCCAGCTGATGAATTCATCTACTCGAGTAAACAAATTTTCCTAATCTTTCTGTTCAAGCGCCATCTAC,0.562
14,GATGATTGTTCTCCCAGCTGATGAATTTCTGTTCTCGAGTAAACAAATTTTCCTAATCTTTCTGTTCAAGCGCCATCTAC,0.518
15,GATGATTGTTCTCCCAGCTGATGAATTGTATATCTCGAGTAAACAAATTTTCCTAATCTTTCTGTTCAAGCGCCATCTAC,3.03
16,GATGATTGTTCTCCCAGCTGATGAATTATTATGTTCGAGTAAACAAATTTTCCTAATCTTTCTGTTCAAGCGCCATCTAC,1.3

row,Sequence,binding signal (RPM ratio (pull-down/input))
1,GATGATTGTTCTCCCAGCTGATGAATTTGTTGCCTCGAGTAAACAAATTTTCCTAATCTTTCTGTTCAAGCGCCATCTAC,7.02
2,GATGATTGTTCTCCCAGCTGATGAATTCGCTAATTCGAGTAAACAAATTTTCCTAATCTTTCTGTTCAAGCGCCATCTAC,0.295
3,GATGATTGTTCTCCCAGCTGATGAATTGTACTGGTCGAGTAAACAAATTTTCCTAATCTTTCTGTTCAAGCGCCATCTAC,0.401
4,GATGATTGTTCTCCCAGCTGATGAATTATGGGCTTCGAGTAAACAAATTTTCCTAATCTTTCTGTTCAAGCGCCATCTAC,0.459
5,GATGATTGTTCTCCCAGCTGATGAATTCTGGCTTTCGAGTAAACAAATTTTCCTAATCTTTCTGTTCAAGCGCCATCTAC,0.896
6,GATGATTGTTCTCCCAGCTGATGAATTGAGATATTCGAGTAAACAAATTTTCCTAATCTTTCTGTTCAAGCGCCATCTAC,0.723
7,GATGATTGTTCTCCCAGCTGATGAATTCCGCATGTCGAGTAAACAAATTTTCCTAATCTTTCTGTTCAAGCGCCATCTAC,5.82
8,GATGATTGTTCTCCCAGCTGATGAATTGCAAGAATCGAGTAAACAAATTTTCCTAATCTTTCTGTTCAAGCGCCATCTAC,0.396
9,GATGATTGTTCTCCCAGCTGATGAATTGTTGTCTTCGAGTAAACAAATTTTCCTAATCTTTCTGTTCAAGCGCCATCTAC,5.62
10,GATGATTGTTCTCCCAGCTGATGAATTCAGGACATCGAGTAAACAAATTTTCCTAATCTTTCTGTTCAAGCGCCATCTAC,0.358
11,GATGATTGTTCTCCCAGCTGATGAATTAATTTAATCGAGTAAACAAATTTTCCTAATCTTTCTGTTCAAGCGCCATCTAC,0.482
12,GATGATTGTTCTCCCAGCTGATGAATTTACTGTATCGAGTAAACAAATTTTCCTAATCTTTCTGTTCAAGCGCCATCTAC,1.26
13,GATGATTGTTCTCCCAGCTGATGAATTACGCCACTCGAGTAAACAAATTTTCCTAATCTTTCTGTTCAAGCGCCATCTAC,6.17
14,GATGATTGTTCTCCCAGCTGATGAATTCGTAGCCTCGAGTAAACAAATTTTCCTAATCTTTCTGTTCAAGCGCCATCTAC,0.875
15,GATGATTGTTCTCCCAGCTGATGAATTCGGCGGCTCGAGTAAACAAATTTTCCTAATCTTTCTGTTCAAGCGCCATCTAC,0.636
